# According to PubChem BioAssay AID686979 (National Center for Advancing Translational Sciences (NCATS), 2013):
# About 50,000 (12%) of roughly 420,000 compounds were called active. Inconclusive results, whose numbers are uncertain, are shown with a selection of clear calls. The call rests on the fitted dose curve; in most records, active means well fitted inhibition curve with a large enough effect; inconclusive means small, poorly fitted or top-dose-only effect; inactive means flat fitted curve, though single readings scatter. No potency is given beside an inconclusive call; the fits are too rough.
# Experiment: qHTS for Inhibitors of human tyrosyl-DNA phosphodiesterase 1 (TDP1): qHTS in cells in presence of CPT; further: nearly all actives have a fitted effect of over 55% in size
# Conditions: chicken DT40 Tdp1-/-;hTDP1 cells + 20 nM CPT, ATP luminescence, 48 h; series mostly up to 46.2 µM
# Method in brief: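 Chicken DT40 Tdp1-/- cells stably complemented with human TDP1 were seeded at 400 cells/well in medium containing 20 nM camptothecin, exposed to pin-transferred compounds, and grown at 37 °C for at least 48 hr. Viability was read as ATP luminescence.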
# Potency means the concentration at half of the fitted maximal effect; tags describe the fitted curve by direction and shape.
row,SMILES,Potency
1,CCc1nc2c(OCc3ccc(F)cc3)cccn2c1N(C)C(=O)CC(C)C,"inconclusive [inhibitor, single point]"
2,COc1ccc(OC)c(Nc2nc(NCCCN(C)C)nc(N)c2[N+](=O)[O-])c1,active: 4.61 µM
3,O=C(NNC(=S)NC(=O)c1ccccc1)c1cccc([N+](=O)[O-])c1,"inconclusive [inhibitor, single point]"
4,COc1cc(/C=N/NC(=S)NC2CC3CCC2C3)ccc1O (stereo not drawn),"inconclusive [inhibitor, single point]"
5,Cc1ccc2[nH]c3c(=O)n(CC(=O)NCCc4ccc(Cl)cc4)ncc3c2c1,inactive
6,COc1cc(CC(=O)OCC(=O)Nc2cc([N+](=O)[O-])ccc2Cl)cc(OC)c1OC,inactive
7,CC(=O)Oc1ccccc1Cn1c(C)c(C(=O)NCCC#N)sc1=O,inactive
8,CCCCCCn1c(N2CCN(c3cccc(Cl)c3)CC2)nc2c1c(=O)[nH]c(=O)n2C,"inconclusive [inhibitor, single point]"
9,COCCCn1c(=O)c2sccc2n2c(CCCC(=O)NCc3ccc(F)cc3)nnc12,inactive
10,CCCn1c(SCC(=O)C(C)(C)C)nc2ccccc21,inactive
11,CCc1nnc(NC(=O)c2ccco2)s1,inactive
12,CCN(CC)CCCNC(=O)CSc1nc2nc(C)c(Cc3c(F)cccc3Cl)c(C)n2n1,"inconclusive [inhibitor, single point]"
13,Cc1ccc(Cc2cnc(NC(=O)C3CCCO3)s2)cc1 (stereo not drawn),inactive
14,Cc1ccc(N(Cc2cc3ccccc3[nH]c2=O)C(=O)c2cccc(Cl)c2)cc1,"inconclusive [inhibitor, single point]"
15,O=C(O)Cc1ccc(O)c(O)c1,"inconclusive [inhibitor, single point]"
16,CC(NC(=O)c1ccc(CS(C)(=O)=O)cc1)c1cccc2ccccc12 (stereo not drawn),inactive
17,COc1ccc(NC(=O)CSc2nnc(-c3ccncc3)o2)c([N+](=O)[O-])c1,inactive
18,CC(=O)Nc1ccc(NC(=O)C2(C)Cc3c(-c4cccc(NC(C)=O)c4)ccnc3O2)cc1 (stereo not drawn),inactive
19,Cc1ccc(-c2nc3cc(C)c(Br)c(C)n3c2Cc2ccccc2)cc1,active: 2.31 µM
20,COc1ccccc1CNc1nc2ccccc2n1CCN1CCCCC1,"inconclusive [inhibitor, single point]"
21,CCOC(=O)c1ccc(NC(=S)NCc2cccnc2)cc1,"inconclusive [inhibitor, single point]"
22,CCOc1cccc(C(=O)Nc2ccccc2C(=O)N2CCN(C)CC2)c1,inactive
23,CCOC(=O)Cc1csc(SC(C)C(=O)NCC(=O)Nc2ccc(F)c(F)c2F)n1 (stereo not drawn),inactive
24,Cc1c(CC(=O)N2CCC(C(N)=O)CC2)c(=O)oc2cc3c(cc12)CCC1(CCCCC1)O3,"inconclusive [inhibitor, single point]"
25,CCc1cc(=O)[nH]c(SCCC(F)=C(F)F)n1,inactive

row,SMILES,Potency
1,CC(C)NC(=O)c1ccc(COc2cccc3ccccc23)o1,"inconclusive [inhibitor, single point]"
2,COc1ccc(Cn2ccc3nc(C)c(C(=O)N4CCN(c5ccccc5OC)CC4)cc3c2=O)cc1,"inconclusive [inhibitor, single point]"
3,CC(C)c1ccc2occ(CC(=O)Nc3ccccc3Cl)c2c1,inactive
4,COc1ccc(-c2noc(CCCC(=O)NCCc3ccccc3)n2)cc1OC,"inconclusive [inhibitor, single point]"
5,O=C(NNc1ccccc1)Nc1cc(Cl)ccc1Cl,inactive
6,CN(C)CCCN(C(=O)c1ccc(S(=O)(=O)N(C)C)cc1)c1nc2cc3c(cc2s1)OCO3,"inconclusive [inhibitor, single point]"
7,COc1ccc(CNS(=O)(=O)c2ccc3c(c2)CCN3C(=O)C2CCC2)cc1,"inconclusive [inhibitor, single point]"
8,COc1ccc(OCC2c3cc(OC)c(OC)cc3CCN2C(=O)COc2ccc(Cl)cc2Cl)cc1 (stereo not drawn),"inconclusive [inhibitor, single point]"
9,C=CCn1c(SCC(=O)c2[nH]c(C)c(C(=O)OC)c2C)nc2scc(-c3ccc(OC)c(OC)c3)c2c1=O,active: 16.4 µM
10,COc1ccc(-c2noc(CSc3nc(C)cc(=O)[nH]3)n2)cc1OC,"inconclusive [inhibitor, single point]"
11,COc1ccccc1CNc1cc(-c2cccc(NS(C)(=O)=O)c2)ncn1,"inconclusive [inhibitor, single point]"
12,Cc1c(C(=O)N2CCCC2)sc(NC(=O)c2cccc(Cl)c2)c1C#N,"inconclusive [inhibitor, single point]"
13,CCCCCCCCN1C(=O)[C@H](CC(=O)NCc2ccccc2)C[C@@]2(C(=O)OC)CCCCC=C12,active: 16.4 µM
14,COc1ccc(-c2nc3cc(C)c(Br)c(C)n3c2Cc2ccsc2)cc1OC,"inconclusive [inhibitor, partial curve]"
15,Cc1cccc(C(=O)Nc2cc(OCc3cccc(F)c3)c(Cl)cc2Cl)c1,"inconclusive [inhibitor, partial curve]"
16,CCCc1nc2c(C)cc(-c3nc4ccccc4n3C)cc2n1Cc1ccc(-c2ccccc2C(=O)O)cc1,"inconclusive [inhibitor, single point]"
17,CC1=C(C(N)=O)C(c2cccc(C)c2)n2nc(-c3cccc(C)c3)nc2N1 (stereo not drawn),"inconclusive [inhibitor, single point]"
18,c1ccc(OCCNc2ccn3nc(-c4ccco4)cc3n2)cc1,"inconclusive [inhibitor, single point]"
19,CC(C)c1c(C(=O)N/N=C/c2c[nH]c3ccccc23)nnn1-c1nonc1N,"inconclusive [inhibitor, single point]"
20,O=C(Nc1cccc(S(=O)(=O)N2CCCC2)c1)[C@@H]1O[C@H](CO)[C@H](O)[C@H](O)[C@H]1O,inactive
21,Cn1nc(C(=O)NC2CCCC2)c2ccccc2c1=O,inactive
22,CCOc1ccccc1N(CC(=O)NC1CCCC1)C(=O)CNC(=O)c1cccs1,inactive
23,CC(C)N(C(=O)Cn1cc(S(=O)(=O)CC(=O)N2CCOCC2)c2ccccc21)C(C)C,inactive
24,Cc1ccc(C)c(S(=O)(=O)N2CCN(C(=O)c3ccc(OCc4c(C)noc4C)cc3)CC2)c1,"inconclusive [inhibitor, single point]"
25,CCOc1ccccc1C(=O)OCC(=O)NCCNC(=O)COC(=O)c1ccccc1OCC,inactive

row,SMILES,Potency
1,O=C1ON=C(c2cccc([N+](=O)[O-])c2)/C1=C/c1ccc(O)cc1,active: 11.6 µM
2,C#C[C@]1(OC(C)=O)CC[C@H]2[C@@H]3CCC4=CC(=O)CC[C@@H]4[C@H]3CC[C@@]21C,active: 8.41 µM
3,C[C@@H](NC(=O)c1ncn2c1C(=O)NC[C@@H]2C)c1ccccc1,inactive
4,Cc1cc(C)n(CC(=O)N2CCCC(N3CCN(c4cccc(C(F)(F)F)c4)CC3)C2)n1 (stereo not drawn),"inconclusive [inhibitor, partial curve, poor fit]"
5,CCCC(C(=O)NCCC(C)C)N(Cc1ccccc1)C(=O)c1snc(C(N)=O)c1N (stereo not drawn),active: 18.4 µM
6,Cc1ccc(S(=O)(=O)CCC(=O)OCC(=O)N(C)c2ccccc2)cc1,inactive
7,CCn1c2ccccc2c2cc(NC(=O)CNCC3CCCO3)ccc21 (stereo not drawn),"inconclusive [inhibitor, single point]"
8,COC(=O)c1c(C)oc2ccc(N(C(=O)c3ccncc3)S(=O)(=O)c3ccc4ccccc4c3)cc12,active: 23.1 µM
9,NNC(=O)/C(=C\c1ccco1)NC(=O)c1ccco1,inactive
10,Cc1ccc(C(=O)CC2C(=O)N(c3ccccc3)C(=S)N2c2ccccc2)cc1 (stereo not drawn),"inconclusive [inhibitor, single point]"
11,Cc1ccc(C(O)c2ncc(-c3ccc4ccccc4c3)[nH]2)c(C)c1 (stereo not drawn),"inconclusive [inhibitor, single point]"
12,Cc1ccc(CCNC(=O)C2CCCN(c3ncnc4c3nc3n4CCCCC3)C2)cc1 (stereo not drawn),"inconclusive [inhibitor, single point]"
13,COc1cccc(CNc2ccc([N+](=O)[O-])c(NCC(=O)O)n2)c1,inactive
14,c1ccc2cc(CCO[C@H]3CCCCO3)ncc2c1,inactive
15,CC(=O)c1c(COC(=O)c2cccc(C)c2)nc2ccccc2[n+]1[O-],"inconclusive [inhibitor, single point]"
16,Fc1ccccc1NC(=S)NN(Cc1ccccc1)c1ccccc1,"inconclusive [inhibitor, single point]"
17,CN(CC(=O)N1CCOCC1)Cc1c(Cl)cccc1NC(=O)c1ccccc1,"inconclusive [inhibitor, single point]"
18,Cc1csc2ncnc(N3CCN(C(=S)Nc4ccc(C(F)(F)F)cc4)CC3)c12,"inconclusive [inhibitor, single point]"
19,CNCCCCOc1ccccc1Cc1ccccc1,active: 7.5 µM
20,Cc1ccc(OCCCCN(C)Cc2ccccc2)c(Br)c1,active: 23.1 µM
21,CCn1c(SCc2ccc(F)cc2Cl)nc(=O)c2c(C(=O)OC)cc(C3CC3)nc21,active: 16.4 µM
22,O=C(C1=C[C@@H](C2CCCCC2)C[C@@H](OCc2ccc(CO)cc2)O1)N1CCN(Cc2ccccc2)CC1,active: 20.6 µM
23,CCOc1ccc(OCC)c(-c2c(=O)n(OCc3ccc(Cl)cc3)c3ccccc3[n+]2[O-])c1,active: 7.31 µM
